Results published in PubChem BioAssay AID602292 (National Center for Advancing Translational Sciences (NCATS), 2012).
About 380 (29%) of roughly 1,300 compounds were called active. The inconclusive results got no clear call from the source; some entries with a clear call stand among them for comparison. Calls come from the whole dose curve; as a rule, active = well fitted inhibition curve with a large enough effect; inconclusive = small, poorly fitted or top-dose-only effect; inactive = flat fitted curve, though single readings scatter. Potencies of inconclusive entries are left out as doubtful fits.

What follows are molecules tested against Thyrotropin receptor (Homo sapiens) (UniProt P16473) (assay: qHTS for antagonists of the Thyroid Stimulation Hormone Receptor: Hit Validation in Primary Screen). Conditions: TSHR-expressing cells, cAMP antagonist mode.
Chain of UniProt P16473 (P16473 whole entry, looked up): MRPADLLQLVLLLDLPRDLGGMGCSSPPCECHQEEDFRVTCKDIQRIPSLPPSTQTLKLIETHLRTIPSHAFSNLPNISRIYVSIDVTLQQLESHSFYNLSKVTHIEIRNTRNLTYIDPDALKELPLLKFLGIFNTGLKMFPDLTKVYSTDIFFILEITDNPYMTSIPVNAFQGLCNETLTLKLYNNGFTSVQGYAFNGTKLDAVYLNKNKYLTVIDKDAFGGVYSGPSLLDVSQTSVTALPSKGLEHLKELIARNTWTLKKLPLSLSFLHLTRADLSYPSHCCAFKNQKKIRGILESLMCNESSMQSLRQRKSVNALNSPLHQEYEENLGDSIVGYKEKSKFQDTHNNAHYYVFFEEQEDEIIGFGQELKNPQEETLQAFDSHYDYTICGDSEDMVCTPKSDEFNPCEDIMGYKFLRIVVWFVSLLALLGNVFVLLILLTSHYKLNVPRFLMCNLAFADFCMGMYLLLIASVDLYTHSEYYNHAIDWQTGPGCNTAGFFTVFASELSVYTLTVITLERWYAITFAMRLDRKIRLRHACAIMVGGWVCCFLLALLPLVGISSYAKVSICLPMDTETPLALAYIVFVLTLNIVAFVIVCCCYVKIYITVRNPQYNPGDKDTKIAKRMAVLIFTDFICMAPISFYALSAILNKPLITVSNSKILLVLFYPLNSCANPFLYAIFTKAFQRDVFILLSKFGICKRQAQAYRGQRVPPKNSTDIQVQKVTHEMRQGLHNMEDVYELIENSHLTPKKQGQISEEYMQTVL
From the text: The thyroid-stimulating hormone receptor (TSHR) is a member of the 7 trans-membrane-spanning receptor (7TMR) family of cell surface receptors. TSHR-mediated hyperthyroidism is important in thyroid pathology. The development of small molecule antagonists of TSHR may lead to therapeutic approaches for TSHR-mediated hyperthyroidism caused by constitutively activating mutations or stimulating auto-antibodies associated with Graves' disease. Graves' disease is the leading cause of hyperthyroidism and is caused by autoantibodies that stimulate TSHR (TsAbs) causing thyroid growth and unregulated overproduction of thyroid hormones and existing treatments have liabilities (agranulocytosis). In addition, TSHRs are known to be expressed in multiple extrathyroidal tissues including bone, brain, kidney, testis, fat and cells of the immune system but the role of the TSHR in these tissues is not clear. Therefore, TSHR antagonists/inverse agonists could be used as probes of extrathyroidal TSHR function. Finally, TSHR inverse agonists, which are a subclass of antagonists that inhibit agonist-independent (or basal or constitutive) TSHR signaling, could be used to inhibit TSH-independent signaling in patients with recurrent or metastatic thyroid cancer who are receiving thyroid hormone to suppress TSH.
In collaboration between scientist from the NCGC and the NIDDK, a miniaturized HTRF high-throughput screen was developed. It's a cell based assay, where an anti cAMP antibody contains a fluorescent cryptate tag (excitation 337 nm; emission 620 nm) and the acceptor is cAMP-d2 (excitation 620 nm; emission 665 nm). When antibody and cAMP-d2 interact and are excited by a 337 nm light, a FRET occurs resulting in emission at 665 nm. The assay is competition between cAMP-d2 and cAMP (from the cell lysate). The homogeneous protocol allows for one step dispense after stimulation that is automation friendly. This is a hit validation assay using the primary screen format.
NIH Chemical Genomics Center [NCGC]
NIH Molecular Libraries Probe Centers Network [MLPCN]
Assay Provider: Marvin Gershengorn, NIDDK
1. 3ul of 200 TSHR freshly harvested cells/well are dispensed into a 1536 TC-treated white solid bottom plate.
2. Through pintool addition, 23nl of compounds and control in 100% DMSO are added to the plate.
3. Then 1ul of EC80 TSH (4nM final) is added to the plate.
4. Assay is incubated at 37 deg C for 2 hours.
5. 2ul of cAMP antibody diluted 1:20 in lysis buffer is added.
6. Immediately following, 2ul of d2 diluted 1:20 in HBSS is added seperately.
7. The assay is incubated for 30 minutes at ambient room temperature.
8. The result is obtained by using a ViewLux read-out with HTRF settings.
Note: nearly all actives have a fitted effect of over 80% in size.
Potency is the fitted concentration of half-maximal effect; tags give direction and shape of the fitted curve.

Structure (SMILES)	Potency
Cc1ccccc1NC(=O)CCc1c(C)nn(-c2ccc(N3CCOCC3)nn2)c1C	inactive
COc1cc(/C=N/Nc2ccc(C(=O)O)cc2)ccc1O	inconclusive [inhibitor, partial curve, poor fit]
O=[N+]([O-])c1cc(S(=O)(=O)C(F)(F)F)ccc1Sc1nc2ccccc2s1	inconclusive [inhibitor, partial curve]
O=C(Nc1ccncc1)c1cccc(S(=O)(=O)N2CCc3ccccc32)c1	inconclusive [inhibitor, partial curve]
O=C(Nc1nc(-c2ccc(F)cc2)cs1)C1CCN(C(=O)c2ccc(F)cc2)CC1	inconclusive [inhibitor, partial curve]
COc1ccc(S(=O)(=O)n2cnc3ccccc32)c(C)c1	inconclusive [inhibitor, partial curve]
Cc1ccc(NC(=O)C(C)c2ccc(-c3ccccc3)c(F)c2)cc1 (stereo not drawn)	inconclusive [inhibitor, partial curve]
Cc1ccc(OC(F)F)c(NC(=O)Nc2cccc(C(F)(F)F)c2)c1	active: 26.9 µM
O=C1NC(=S)N(C(=O)c2ccc(F)cc2)/C1=C/c1ccccc1	inconclusive [inhibitor, partial curve]
COc1cc2sc3ccc(-c4ccc(CN5CCOCC5)cc4)cc3c(=O)c2cc1OC	inconclusive [inhibitor, partial curve, poor fit]
N#C/C(=C\c1ccc(Oc2ccc(C(F)(F)F)cc2[N+](=O)[O-])cc1)c1nc2ccccc2[nH]1	inconclusive [inhibitor, partial curve, poor fit]
N=c1oc2ccccc2cc1C(=O)NC1CCCCCC1	inconclusive [inhibitor, partial curve, poor fit]
O=C(Nc1c(F)cc(F)cc1Br)c1cc(-c2ccc(O)cc2)on1	inconclusive [inhibitor, partial curve]
Cc1nn(CCCC(=O)Nc2cc(Oc3ccccc3)cc([N+](=O)[O-])c2)c(C)c1[N+](=O)[O-]	inconclusive [inhibitor, partial curve]
CCn1nc([N+](=O)[O-])c(C(C#N)c2nc3cc(C(F)(F)F)ccc3s2)c(Cl)c1=O (stereo not drawn)	active: 2.69 µM
Cc1ccc(-c2ccc(/C=N/N=C3/NC(=O)C(CC(=O)O)S3)o2)c([N+](=O)[O-])c1 (stereo not drawn)	inactive
COc1ccc(CN2CCCN(C)CC2)c(OC)c1C	inactive
Cc1cccc(OC2CCN(Cc3nc(CC4CC4)no3)CC2)c1	inactive
CCCCn1c(/N=C/c2ccccc2NS(=O)(=O)c2ccc(C)cc2)nc2ccccc21	inconclusive [inhibitor, partial curve]
O=C(CN1C(=O)NC2(CCCc3ccccc32)C1=O)N1CCN(c2cccc(C(F)(F)F)c2)CC1 (stereo not drawn)	inconclusive [inhibitor, partial curve]
COc1ccc(-c2cc(-c3nc4ccccn4c3NCc3ccccc3)ccc2OC)cc1	active: 2.69 µM
O=C(CSc1nc(-c2ccc(Cl)cc2)cs1)Nc1cccc([N+](=O)[O-])c1	inconclusive [inhibitor, partial curve]

Structure (SMILES)	Potency
COc1ccccc1NC(=O)c1nc(S(=O)(=O)Cc2ccccc2)ncc1Cl	inconclusive [inhibitor, partial curve]
Cc1ccc(S(=O)(=O)/N=C2\C=C(Nc3cccc(C(=O)O)c3)C(=O)c3ccccc32)cc1	inconclusive [inhibitor, partial curve]
COc1cc(NS(=O)(=O)c2ccc(C)cc2C)cc(OC)c1OC	active: 37.9 µM
O=C(Nc1ccc(N=Nc2ccccc2)cc1)c1ccccc1Cl	inconclusive [inhibitor, partial curve]
O=[N+]([O-])c1ccc(N2CCN(C(=S)NCc3ccc(Cl)cc3)CC2)cc1	inconclusive [inhibitor, partial curve]
CS(=O)(=O)N(CC(=O)N1CCOCC1)c1cccc(F)c1	inactive
O=C(/C=C/c1ccco1)Nc1ccc(Oc2ccc(Cl)cc2)cc1	inconclusive [inhibitor, partial curve]
CC1=C/C(=N\OS(=O)(=O)c2ccccc2)C(C)=CC1=O	active: 4.78 µM
C(=N\Nc1nc2ccccc2[nH]1)/c1ccncc1	inconclusive [inhibitor, partial curve, poor fit]
O=C(COC(=O)c1cc(S(=O)(=O)N2CCOCC2)c(Cl)cc1Cl)c1ccc[nH]1	inconclusive [inhibitor, partial curve]
COc1ccc(-n2nc(C(=O)NCC(=O)NCCCN3CCN(C)CC3)c3ccccc3c2=O)cc1	inactive
CCOc1ccc(-n2c(SCC(=O)Nc3cc(C)on3)nc3c(c2=O)SCC3)cc1	inactive
COc1cccc(/C=N/NC(=O)C(=O)N2CCCC2)c1O	inactive
O=C(Nc1cccc(Cl)c1)Nc1ccc(Br)cc1F	active: 21.3 µM
Cc1onc(-c2ccccc2Cl)c1C(=O)NC(=S)Nc1ccc(C(C)C)cc1	inconclusive [inhibitor, partial curve]
CCOC(=O)C1CCCN(S(=O)(=O)c2cnc(Cl)c(Br)c2)C1 (stereo not drawn)	inconclusive [inhibitor, partial curve, poor fit]
COc1ccc(-c2nnc(CSc3nc4ccccc4c(=O)n3CC3CCCO3)o2)cc1OC (stereo not drawn)	inactive
CCOc1ccccc1NC(=O)c1nc(S(=O)(=O)Cc2cccc(C)c2)ncc1Cl	inconclusive [inhibitor, partial curve]
COc1ccc(-c2ccc(SCc3ccccn3)nn2)cc1OC	inactive
CCOc1ccccc1-n1c(=S)sc2c(=O)n(-c3ccc(F)cc3)c(SCC(=O)O)nc21	inactive
O=C(CN1C(=O)c2ccccc2S1(=O)=O)NCCSCc1cccc(Cl)c1	inconclusive [inhibitor, partial curve, poor fit]
